In all, about 2,900 compounds were measured (“NF-kB SEAP reporter activity, fold change vs agonist alone”: median about 0.99, highest 2% from about 2.6 on). The list shows a part of the results.
Assays:
RAW-Dual [1] = assay: NF-kB SEAP reporter activity, fold change vs agonist alone; higher = enhanced NF-kB activity; details: library stock concentration (final ~1000-fold dilution): 10 mM
How it was run: (§1)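 Cytotoxic wells were those whose IncuCyte confluency was below 70% of agonist controls in both mask sets. The cells were RAW-Dual macrophages at 50,000 cells/well in DMEM on 384-well plates, dosed with 50 nL of library stock by pin tool, stimulated with a PRR agonist 1 h later, and kept at 37 °C, 5% CO2 for 20 hours. IRF and NF-κB reporter activity, as fold change over agonist-alone wells, came from supernatant read by QuantiLuc luminescence and QuantiBlue absorbance, respectively.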

RAW-Dual [2] = assay: NF-kB SEAP reporter activity, fold change vs agonist alone; cytotoxicity flag (confluency mask): not cytotoxic; higher = enhanced NF-kB activity
How it was run: as §1

RAW-Dual [3] = assay: NF-kB SEAP reporter activity, fold change vs agonist alone; cytotoxicity flag (confluency mask): cytotoxic (confluency <70% of control); higher = enhanced NF-kB activity
How it was run: as §1

[4] = cytotoxicity flag (confluency mask): not cytotoxic, agonist: Imiquimod (TLR7) […]
[5] = cytotoxicity flag (confluency mask): not cytotoxic, agonist: MPLA (TLR4) […]
[6] = agonist: ODN 1826 (TLR9) 0.5 ug/mL
[7] = agonist: Pam2CSK4 (TLR2/6) 0.1 ug/mL
[8] = agonist: Pam3CSK4 (TLR2/1) 0.1 ug/mL
[9] = cytotoxicity flag (confluency mask): cytotoxic (confluency <70% of control), agonist: Imiquimod (TLR7) […]
[10] = cytotoxicity flag (confluency mask): cytotoxic (confluency <70% of control), agonist: MPLA (TLR4) […]

**Q.** Which results are given for `O=C(c1ccc(Cl)cc1)N(Cc1ccccc1)C1CCCCC1`?
**A.** NF-kB SEAP reporter activity (RAW-Dual [1]; [4]): 0.752; NF-kB SEAP reporter activity (RAW-Dual [1]; [5]): 1.12

**Q.** Which results are given for `O=C(c1ccc(Cl)cc1)N(Cc1ccccc1)C1CCCCC1` (library stock concentration (final ~1000-fold dilution): 10 mM)?
**A.** NF-kB SEAP reporter activity (RAW-Dual [2]; agonist: LPS (TLR4) 0.1 ug/mL): 1.17; NF-kB SEAP reporter activity (RAW-Dual [2]; [6]): 0.509; NF-kB SEAP reporter activity (RAW-Dual [2]; [7]): 0.806; NF-kB SEAP reporter activity (RAW-Dual [2]; [8]): 0.849

**Q.** What does the source list for `O=C(Nc1ccccc1)N1CCN(c2nc(-c3ccccc3)ns2)CC1` (library stock concentration (final ~1000-fold dilution): 10 mM)?
**A.** NF-kB SEAP reporter activity (RAW-Dual [2]; agonist: LPS (TLR4) 0.1 ug/mL): 2.07; NF-kB SEAP reporter activity (RAW-Dual [2]; [6]): 0.961; NF-kB SEAP reporter activity (RAW-Dual [2]; [7]): 1.11; NF-kB SEAP reporter activity (RAW-Dual [2]; [8]): 1.13

**Q.** Which results are given for `O=C(Nc1ccccc1)N1CCN(c2nc(-c3ccccc3)ns2)CC1`?
**A.** NF-kB SEAP reporter activity (RAW-Dual [1]; [4]): 1.27; NF-kB SEAP reporter activity (RAW-Dual [1]; [5]): 1.25

**Q.** With `Clc1cccc(CN=C2Nc3ccccc3NC23CCNCC3)c1` as the compound, how does the “NF-kB SEAP reporter activity” value (RAW-Dual [1]; [4]) read?
**A.** Its value is 1.04.

**Q.** What about the “NF-kB SEAP reporter activity” value (RAW-Dual [1]; [5]) of the same compound?
**A.** Its value is 1.21.

**Q.** Which results are given for `Clc1cccc(CN=C2Nc3ccccc3NC23CCNCC3)c1` (library stock concentration (final ~1000-fold dilution): 10 mM)?
**A.** NF-kB SEAP reporter activity (RAW-Dual [2]; agonist: LPS (TLR4) 0.1 ug/mL): 0.98; NF-kB SEAP reporter activity (RAW-Dual [2]; [6]): 0.169; NF-kB SEAP reporter activity (RAW-Dual [2]; [7]): 0.518; NF-kB SEAP reporter activity (RAW-Dual [2]; [8]): 0.355

**Q.** Which results are given for `C/C(=C\C(=O)OCCCCCCCCC(=O)O)CC1OCC(CC2OC2C(C)C(C)O)C(O)C1O` (stereo not drawn)?
**A.** NF-kB SEAP reporter activity (RAW-Dual [1]; [4]): 1.06; NF-kB SEAP reporter activity (RAW-Dual [1]; [5]): 1.04

**Q.** Which “NF-kB SEAP reporter activity” value (RAW-Dual [2]; agonist: LPS (TLR4) 0.1 ug/mL) does the source give for `C/C(=C\C(=O)OCCCCCCCCC(=O)O)CC1OCC(CC2OC2C(C)C(C)O)C(O)C1O` (stereo not drawn) (library stock concentration (final ~1000-fold dilution): 10 mM) here?
**A.** The value was 1.46.

**Q.** And the “NF-kB SEAP reporter activity” value (RAW-Dual [2]; [6])?
**A.** Its value is 1.05.

**Q.** And the “NF-kB SEAP reporter activity” value (RAW-Dual [2]; [7])?
**A.** The value was 1.02.

**Q.** And the “NF-kB SEAP reporter activity” value (RAW-Dual [2]; [8])?
**A.** The value was 1.16.

**Q.** Which results are given for `CN(c1ncccc1CNc1nc(Nc2ccc3c(c2)CC(=O)N3)ncc1C(F)(F)F)S(C)(=O)=O`?
**A.** NF-kB SEAP reporter activity (RAW-Dual [1]; [9]): 0.481; NF-kB SEAP reporter activity (RAW-Dual [1]; [10]): 0.23

**Q.** Which “NF-kB SEAP reporter activity” value (RAW-Dual [3]; agonist: LPS (TLR4) 0.1 ug/mL) does the source give for `CN(c1ncccc1CNc1nc(Nc2ccc3c(c2)CC(=O)N3)ncc1C(F)(F)F)S(C)(=O)=O` (library stock concentration (final ~1000-fold dilution): 10 mM) here?
**A.** The value was 0.225.

**Q.** And the “NF-kB SEAP reporter activity” value (RAW-Dual [3]; [6])?
**A.** The value was 0.225.

**Q.** What about the “NF-kB SEAP reporter activity” value (RAW-Dual [3]; [7]) of the same compound?
**A.** Its value is 0.104.

**Q.** And the “NF-kB SEAP reporter activity” value (RAW-Dual [3]; [8])?
**A.** Its value is 0.162.

**Q.** What does the source list for `CCCCCCCCOc1ccccc1C(=O)Nc1ccc(C(=O)OCC[N+](C)(CC)CC)cc1` (library stock concentration (final ~1000-fold dilution): 10 mM)?
**A.** NF-kB SEAP reporter activity (RAW-Dual [3]; agonist: LPS (TLR4) 0.1 ug/mL): 0.618; NF-kB SEAP reporter activity (RAW-Dual [3]; [6]): 0.645; NF-kB SEAP reporter activity (RAW-Dual [3]; [7]): 0.546; NF-kB SEAP reporter activity (RAW-Dual [3]; [8]): 0.476

**Q.** For `CCCCCCCCOc1ccccc1C(=O)Nc1ccc(C(=O)OCC[N+](C)(CC)CC)cc1`, which “NF-kB SEAP reporter activity” value (RAW-Dual [1]; [9]) is on record?
**A.** The value was 1.6.

**Q.** And the “NF-kB SEAP reporter activity” value (RAW-Dual [1]; [10])?
**A.** The value was 1.

**Q.** With `CC(C)(C)NC(=O)NC(C(=O)N1CC2C(C1C(=O)NC(CC1CCC1)C(=O)C(N)=O)C2(C)C)C(C)(C)C` (stereo not drawn) (library stock concentration (final ~1000-fold dilution): 10 mM) as the compound, how does the “NF-kB SEAP reporter activity” value (RAW-Dual [2]; agonist: LPS (TLR4) 0.1 ug/mL) read?
**A.** The value was 0.977.

**Q.** And the “NF-kB SEAP reporter activity” value (RAW-Dual [2]; [6])?
**A.** Its value is 0.99.

**Q.** What about the “NF-kB SEAP reporter activity” value (RAW-Dual [2]; [7]) of the same compound?
**A.** The value was 0.911.

**Q.** What about the “NF-kB SEAP reporter activity” value (RAW-Dual [2]; [8]) of the same compound?
**A.** The value was 0.841.

**Q.** For `CC(C)(C)NC(=O)NC(C(=O)N1CC2C(C1C(=O)NC(CC1CCC1)C(=O)C(N)=O)C2(C)C)C(C)(C)C` (stereo not drawn), which “NF-kB SEAP reporter activity” value (RAW-Dual [1]; [4]) is on record?
**A.** The value was 0.815.

**Q.** And the “NF-kB SEAP reporter activity” value (RAW-Dual [1]; [5])?
**A.** The value was 0.964.

**Q.** Which results are given for `CC1=NN(c2ccc(C(=O)O)cc2)C(=O)/C1=C\c1ccc(-c2cc(C)c(C)cc2[N+](=O)[O-])o1`?
**A.** NF-kB SEAP reporter activity (RAW-Dual [1]; [4]): 1.16; NF-kB SEAP reporter activity (RAW-Dual [1]; [5]): 0.978

**Q.** Which “NF-kB SEAP reporter activity” value (RAW-Dual [2]; agonist: LPS (TLR4) 0.1 ug/mL) does the source give for `CC1=NN(c2ccc(C(=O)O)cc2)C(=O)/C1=C\c1ccc(-c2cc(C)c(C)cc2[N+](=O)[O-])o1` (library stock concentration (final ~1000-fold dilution): 10 mM) here?
**A.** Its value is 0.424.

**Q.** What about the “NF-kB SEAP reporter activity” value (RAW-Dual [2]; [6]) of the same compound?
**A.** The value was 1.18.

**Q.** What about the “NF-kB SEAP reporter activity” value (RAW-Dual [2]; [7]) of the same compound?
**A.** Its value is 1.07.

**Q.** And the “NF-kB SEAP reporter activity” value (RAW-Dual [2]; [8])?
**A.** Its value is 0.896.

Source: the supplement of paper PMC10037445
